# Out of some 48,000 compounds screened, about 550 (1.1%) were called active. Inconclusive results (about 4%) are left out. No stated cut-off is given here; in the data, active means potency below about 15 µM; inconclusive means mostly about 16 µM to 33 µM; inactive means weaker than that. The list shows a part of the results.
# Biological target: Lysosomal acid glucosylceramidase (Homo sapiens) (UniProt P04062)
# Test: Glucocerebrosidase;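 further: the screen sought inhibitors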
# Settings: purified enzyme, resorufin glucoside fluorescence (screen aimed at inhibitors), 20 min
# In short: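 Compounds titrated against 0.2 nM normal enzyme, 30 uM resorufin beta-D-glucopyranoside substrate, citrate/phosphate buffer with taurocholate and tween-20, pH 5.9. Reaction ran 20 min at room temperature; fluorescence (Ex 548/Em 600) gave AC50.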
# Potency means the concentration at half of the fitted maximal effect.
# Sequence of UniProt P04062 (P04062 whole entry, looked up): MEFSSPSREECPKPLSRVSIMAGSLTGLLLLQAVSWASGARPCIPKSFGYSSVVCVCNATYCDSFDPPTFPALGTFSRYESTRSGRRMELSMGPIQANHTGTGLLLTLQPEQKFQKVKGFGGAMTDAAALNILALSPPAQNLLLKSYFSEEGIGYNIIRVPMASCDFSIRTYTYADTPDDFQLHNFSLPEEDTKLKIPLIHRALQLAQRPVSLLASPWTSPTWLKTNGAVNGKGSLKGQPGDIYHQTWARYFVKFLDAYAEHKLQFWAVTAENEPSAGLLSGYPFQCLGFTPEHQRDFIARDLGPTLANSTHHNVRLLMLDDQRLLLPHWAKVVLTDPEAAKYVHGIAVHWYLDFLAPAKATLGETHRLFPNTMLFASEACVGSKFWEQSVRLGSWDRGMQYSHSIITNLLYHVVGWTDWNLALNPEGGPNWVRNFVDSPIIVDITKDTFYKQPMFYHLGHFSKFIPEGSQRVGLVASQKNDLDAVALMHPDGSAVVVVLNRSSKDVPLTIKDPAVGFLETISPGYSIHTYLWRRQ
row,SMILES,Potency
1,COCCCn1c2nc3ccccc3nc2c2c(=O)n(Cc3ccccc3Cl)cnc21,inactive: > 76.9 µM
2,COc1ccc(OC)c(S(=O)(=O)NCCO)c1,inactive: > 76.9 µM
3,Cc1coc2c(C)c3oc(=O)c4c(c3cc12)CCC4,inactive: > 76.9 µM
4,COc1ccc(-c2nnc(SCC(=O)Nc3ccc(Cl)cc3)n2C)cc1,inactive: > 76.9 µM
5,CCc1ccc2c(c1)[C@]1(C(=O)N2)[C@@H]2C(=O)N(Cc3ccccc3)C(=O)[C@@H]2[C@@H]2CCCN21,inactive: > 76.9 µM
6,Cc1cccc(-c2nnc3n2N=C(c2ccccc2Br)CS3)c1,inactive
7,O=C(NC12CC3CC(CC(C3)C1)C2)N1CCCC(CO)C1 (stereo not drawn),inactive: > 76.9 µM
8,Cn1c(=O)c2c(nc(CN3CCC(Cc4ccccc4)CC3)n2CCN2CCOCC2)n(C)c1=O,inactive: > 76.9 µM
9,CCOC(=O)c1c(C)n(C)c2ccc(OCC(O)Cn3nc(C)cc3C)cc12 (stereo not drawn),inactive: > 76.9 µM
10,CCCNC(=O)C(Cc1ccccc1)NS(=O)(=O)c1cccc2nsnc12 (stereo not drawn),inactive: > 76.9 µM
11,CC1CC(C)CN(c2oc(-c3ccccc3Cl)nc2C#N)C1 (stereo not drawn),inactive: > 76.9 µM
12,COCCn1c(SCC(=O)Nc2ccc3c(c2)OCCO3)nnc1-c1c[nH]c2ccccc12,inactive: > 76.9 µM
13,CCOC(=O)Cc1cc(=O)c2c(=O)n(-c3ccccc3)[nH]c2[nH]1,inactive: > 76.9 µM
14,Cc1ccc(S(=O)(=O)N2CCOCC2)c(C)c1-n1cnnn1,inactive: > 76.9 µM
15,Cc1ccccc1Cn1cc(NC(=O)c2cc3nc(-c4ccco4)cc(C(F)(F)F)n3n2)cn1,inactive: > 76.9 µM
16,CCN(CC)S(=O)(=O)c1ccc(F)c(C(=O)NCCC(C)C)c1,inactive: > 76.9 µM
17,CCCC(=O)N(Cc1cc2cccc(C)c2[nH]c1=O)c1ccccc1OC,inactive: > 76.9 µM
18,C=CCNC(=O)c1ccc(Cl)cc1Cl,inactive: > 76.9 µM
19,Cc1cc(NC(=O)c2cnn3c(C(F)(F)F)cc(-c4ccccc4)nc23)no1,inactive: > 76.9 µM
20,O=c1[nH]c(CN2CCc3ccccc3C2)nc2ccccc12,inactive: > 76.9 µM

row,SMILES,Potency
1,CN(Cc1cccs1)S(=O)(=O)c1cccs1,inactive: > 76.9 µM
2,C1=C(C(c2nnnn2C2CCCCC2)N2CCCCC2)COc2ccccc21 (stereo not drawn),inactive: > 76.9 µM
3,COc1ccc(-n2nc(C(=O)NCC(=O)NCc3ccco3)c3ccccc3c2=O)cc1,inactive: > 76.9 µM
4,COc1ccc(CC(=O)N2CC(=O)N(CCc3ccccc3)C(=O)C2)cc1,inactive: > 76.9 µM
5,Cc1ccc(N(C(=O)C2CCCO2)C2C=CS(=O)(=O)C2)cc1Cl (stereo not drawn),inactive: > 76.9 µM
6,O=C(Nc1c(F)cc(F)cc1Br)c1cc(-c2ccco2)on1,inactive: > 76.9 µM
7,COc1ccc(C2(O)CCN(C(=O)c3ccc4c(c3)OCO4)CC2)cc1,inactive: > 76.9 µM
8,CCCCc1nnc(NC(=O)C=C(C)C)s1,inactive: > 76.9 µM
9,c1nc(N2CCOCC2)c2c3c(sc2n1)CCCC3,inactive: > 76.9 µM
10,CCCC(=O)c1cc(-c2nc3ccccc3n2C)n(C)c1,inactive: > 76.9 µM
11,CCOC(=O)CN1C(=O)NC(C)(c2ccc(OC(F)F)cc2)C1=O (stereo not drawn),inactive: > 76.9 µM
12,COc1ccccc1CC(=O)N(CCC#N)CCC#N,inactive: > 76.9 µM
13,O=C(COC(=O)C1CCN(S(=O)(=O)c2cccs2)CC1)c1ccc2c(c1)OCCO2,inactive: > 76.9 µM
14,Cc1cccc(N2CSC3=C(C#N)C(c4ccc(C)o4)CC(=O)N3C2)c1 (stereo not drawn),active: 15 µM
15,COc1cccc(CNC(=O)C2CCN(S(=O)(=O)N3CCCCC3)CC2)c1,inactive: > 76.9 µM
16,CCOC(=O)c1oc2nc(C(C)C)c3c(c2c1N)CCC3,inactive: > 76.9 µM
17,O=C(NCC1CCCCC1)C1CCCN(C(=O)NC2CCCCC2)C1 (stereo not drawn),inactive: > 76.9 µM
18,CCOc1ccc(CCNC(=O)Cc2nn[nH]n2)cc1OCC,inactive: > 76.9 µM
19,CCCOC(=O)c1ccc(OCC(O)CN2CCN(C(=O)c3ccccc3)CC2)cc1 (stereo not drawn),inactive: > 76.9 µM
20,CCOC(=O)c1cccc(NC(=O)CSc2nnnn2C)c1,inactive: > 76.9 µM

row,SMILES,Potency
1,COc1ccc2c(c1)c1ncn(CCN3CCCC3)c(=O)c1n2C,inactive
2,Cc1nnc(SCCn2c(N3CCC(Cc4ccccc4)CC3)nc3c2c(=O)[nH]c(=O)n3C)s1,inactive: > 76.9 µM
3,COc1ccc(C(=O)CN2C(=O)C(C)(C)Oc3ccc(C(=O)N4CCCCCC4)cc32)cc1,inactive: > 76.9 µM
4,CC(=O)c1cnc(Nc2nc(C)c3ccccc3n2)nc1C,inactive: > 76.9 µM
5,O=C(CSc1nncs1)NC(=O)NCc1ccccc1,inactive: > 76.9 µM
6,CCCCOC(=O)C1=C(C)Nc2ncnn2C1c1ccc(OC)c(OC)c1OC (stereo not drawn),inactive: > 76.9 µM
7,O=C(NC1CCCCC1)c1ccc2c(=O)n(CC3CCCO3)c(=O)[nH]c2c1 (stereo not drawn),active: 6.37 µM
8,CCOc1ccccc1NC(=O)Cn1cnc2c(cnn2-c2ccc(C)c(C)c2)c1=O,inactive: > 76.9 µM
9,N#Cc1c(N)nc(N2CCCC2)c(C#N)c1-c1ccc(Cl)cc1,inactive: > 76.9 µM
10,Cc1cc(C)cc(N(CC(=O)NCC2CCCO2)C(=O)CN2C(=O)COc3ccccc32)c1 (stereo not drawn),inactive: > 76.9 µM
11,C=CCn1sc(=N)c(C#N)c1N,inactive: > 76.9 µM
12,Cn1nnc(NC(=O)C(c2ccccc2)c2ccccc2)n1,inactive: > 76.9 µM
13,O=C(NC1CCS(=O)(=O)C1)OC1CCCCC1 (stereo not drawn),inactive: > 76.9 µM
14,Cc1nc(SCC(=O)NCc2ccco2)nc(C)c1C,inactive: > 76.9 µM
15,COc1ccc(-c2nc(C#N)c(NCc3ccccc3Cl)o2)cc1OC,inactive: > 76.9 µM
16,Cc1nn2c(-c3ccccc3)nnc2c2ccccc12,inactive: > 76.9 µM
17,COc1ccccc1C(OC(=O)c1ccco1)C(=O)NC(C)(C)C (stereo not drawn),inactive: > 76.9 µM
18,Cc1nn(CC(=O)NCCc2ccccc2)c(=O)c2ccccc12,inactive: > 76.9 µM
